In article PMC4336329 (PLoS ONE, 2015):
In all, about 310,000 compounds went through this assay and about 14,000 (4.5%) showed an effect of 50% or more. The effect is printed as a negative number. The list shows a part of the results.
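Further: peak tail current of the secondary pulse compared with the same well before compound.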

The compounds below were run against human ether-à-go-go-related gene (hERG) potassium channel (human, UniProt Q12809) (assay: primary screen, population patch clamp on CHO cells stably expressing hERG).
Sequence of human ether-à-go-go-related gene (hERG) potassium channel (Q12809 whole entry, looked up): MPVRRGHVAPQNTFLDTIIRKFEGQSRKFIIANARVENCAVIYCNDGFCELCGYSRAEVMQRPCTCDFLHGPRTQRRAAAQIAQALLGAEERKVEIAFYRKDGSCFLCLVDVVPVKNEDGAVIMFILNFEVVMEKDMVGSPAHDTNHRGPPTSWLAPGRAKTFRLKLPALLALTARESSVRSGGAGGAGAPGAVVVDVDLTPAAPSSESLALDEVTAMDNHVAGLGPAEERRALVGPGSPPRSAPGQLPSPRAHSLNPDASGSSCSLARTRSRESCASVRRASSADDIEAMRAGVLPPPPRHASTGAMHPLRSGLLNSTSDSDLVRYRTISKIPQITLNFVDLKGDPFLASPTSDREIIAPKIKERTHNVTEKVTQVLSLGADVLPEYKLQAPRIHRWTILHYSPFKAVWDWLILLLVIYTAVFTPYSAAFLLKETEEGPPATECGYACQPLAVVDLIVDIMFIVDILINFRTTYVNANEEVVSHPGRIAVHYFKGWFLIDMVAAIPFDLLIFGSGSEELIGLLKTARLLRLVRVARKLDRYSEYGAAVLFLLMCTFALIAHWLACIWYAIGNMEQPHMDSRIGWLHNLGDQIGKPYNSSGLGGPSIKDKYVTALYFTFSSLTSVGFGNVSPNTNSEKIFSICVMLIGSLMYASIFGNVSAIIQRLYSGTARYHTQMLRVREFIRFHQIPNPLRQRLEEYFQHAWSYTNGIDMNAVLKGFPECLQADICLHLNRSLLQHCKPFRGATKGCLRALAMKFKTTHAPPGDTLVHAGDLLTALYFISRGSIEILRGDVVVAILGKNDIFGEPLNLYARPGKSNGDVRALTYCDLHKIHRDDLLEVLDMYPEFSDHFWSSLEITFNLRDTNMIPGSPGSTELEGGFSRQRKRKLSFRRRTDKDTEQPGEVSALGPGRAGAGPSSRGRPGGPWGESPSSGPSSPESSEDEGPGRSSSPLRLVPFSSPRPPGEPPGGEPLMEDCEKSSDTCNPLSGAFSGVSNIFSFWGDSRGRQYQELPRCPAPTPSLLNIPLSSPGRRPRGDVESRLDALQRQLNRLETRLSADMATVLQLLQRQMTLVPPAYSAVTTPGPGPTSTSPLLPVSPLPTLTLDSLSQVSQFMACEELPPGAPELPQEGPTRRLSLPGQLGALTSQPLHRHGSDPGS
In the case of CSc1ccc(CN(C)CC(=O)N(C)CC(=O)Nc2ccccc2Br)cc1, the “hERG current change (%, negative = inhibition) at 10uM” value was -56.9%. In the case of COc1ccc(C2=NOC(Cn3nc(C(=O)NCc4ccc5c(c4)OCO5)cc3-c3ccccc3)C2)cc1 (stereo not drawn), the “hERG current change (%, negative = inhibition) at 10uM” value was -17.4%. In the case of CCOC(=O)C(Sc1nnc2c3ccccc3n(CC)c2n1)C(=O)OCC, the “hERG current change (%, negative = inhibition) at 10uM” value was -28.7%. In the case of COc1cc(/C=N/NC(=O)c2cncc(Br)c2)cc([N+](=O)[O-])c1O, the “hERG current change (%, negative = inhibition) at 10uM” value was 33.5%. With CC(=O)c1ccc(OCCn2cnc3ccccc32)cc1 the “hERG current change (%, negative = inhibition) at 10uM” value was -15.1%. c1ccc2c(c1)Cn1c-2nc2ccccc21 was tested, and the “hERG current change (%, negative = inhibition) at 10uM” value was -7.79%. For Cc1ccc(N/N=C(\C#N)C(N)=S)c(C)c1, the “hERG current change (%, negative = inhibition) at 10uM” value was -0.767%. In the case of COC(=O)C1=C(c2ccc(Cl)c(C(F)(F)F)c2)C[C@@H]2CC[C@H]1N2C(=O)NCCO, the “hERG current change (%, negative = inhibition) at 10uM” value was 3.46%. With COc1ccccc1CCCNC(=O)C1CCC(=O)N(CCCN2CCCC2=O)C1 (stereo not drawn) the “hERG current change (%, negative = inhibition) at 10uM” value was 14%. With COc1ccc(N2CCN(C(=O)c3ccc4ccccc4n3)CC2)cc1 the “hERG current change (%, negative = inhibition) at 10uM” value was -31.5%. CCNCC(=O)N1c2ccccc2CCc2ccc(NC(=O)OC(C)C)cc21.Cl was tested, and the “hERG current change (%, negative = inhibition) at 10uM” value was -11%. For COCCOC(=O)C1=C(N)OC2=C(C(=O)CC(C)(C)C2)C1c1cccnc1 (stereo not drawn), the “hERG current change (%, negative = inhibition) at 10uM” value was -5.71%. COc1ccc(-c2sc3cc(OC)c(OC)cc3c2C#CC2(O)CCCCC2)cc1 was tested, and the “hERG current change (%, negative = inhibition) at 10uM” value was 14%. In the case of O=C(CCNC(=O)N1CC(=O)Nc2ccccc21)Nc1ccc(Cl)cc1, the “hERG current change (%, negative = inhibition) at 10uM” value was 22.9%. With COc1ccc(N2CC(C(=O)OCC(=O)Nc3cccc(C)c3C)CC2=O)cc1 (stereo not drawn) the “hERG current change (%, negative = inhibition) at 10uM” value was 2.78%. In the case of Cc1ccc(-n2nnnc2SCC(=O)N2CCNC2=O)cc1C, the “hERG current change (%, negative = inhibition) at 10uM” value was -20.2%. For COc1cccc(CC(=O)Nc2cc(S(=O)(=O)N3CCCCC3)ccc2C)c1, the “hERG current change (%, negative = inhibition) at 10uM” value was -15.9%. COc1ccc(CCNc2cn[nH]c(=O)c2Cl)cc1OC was tested, and the “hERG current change (%, negative = inhibition) at 10uM” value was 14.1%. For CCC(=O)Nc1cccc(-c2cn3cccc(C)c3n2)c1, the “hERG current change (%, negative = inhibition) at 10uM” value was -21.5%. In the case of O=C(CSc1nc(-c2ccccc2)cs1)N1CCN(C(=O)c2ccco2)CC1, the “hERG current change (%, negative = inhibition) at 10uM” value was -60.6%. For NC(=O)C1(N2CCCCC2)CCN(C(=O)c2ccc(C#Cc3ccccc3)o2)CC1, the “hERG current change (%, negative = inhibition) at 10uM” value was -21.5%. COc1ccc(N2CCN(CC(=O)c3c[nH]c4ccccc34)CC2)cc1 was tested, and the “hERG current change (%, negative = inhibition) at 10uM” value was 8.09%. With CCC(C(=O)Nc1nnc(-c2ccco2)s1)c1ccccc1 (stereo not drawn) the “hERG current change (%, negative = inhibition) at 10uM” value was 14.7%. With Cn1nc(C(=O)NC2CCCCC2)c2c1-c1ccccc1SC2 the “hERG current change (%, negative = inhibition) at 10uM” value was -3.08%. COc1ccc(-n2ncc3c(=O)n(CC(C)=O)cnc32)cc1 was tested, and the “hERG current change (%, negative = inhibition) at 10uM” value was 23.3%. O=C(Nc1cccc(C(=O)O)c1)/C(=C\c1ccccc1)NC(=O)c1cccc2ccccc12 was tested, and the “hERG current change (%, negative = inhibition) at 10uM” value was 9.23%. For CCCCOc1ccc(C(=O)Oc2cccnc2)cc1, the “hERG current change (%, negative = inhibition) at 10uM” value was 12.2%. O=C(COC(=O)CNC(=O)c1ccccc1F)Nc1cccnc1Cl was tested, and the “hERG current change (%, negative = inhibition) at 10uM” value was 9.67%. With CN1CCCC1C(O)(c1ccccc1)c1ccccc1.Cl (stereo not drawn) the “hERG current change (%, negative = inhibition) at 10uM” value was -3.06%. In the case of O=C(Nc1cccc2ccccc12)C1CCN(C(=O)Cc2ccccc2)CC1, the “hERG current change (%, negative = inhibition) at 10uM” value was -25.3%. In the case of COc1ccc(C(C(=O)NCc2ccccc2)N(Cc2ccco2)C(=O)c2snc(C(N)=O)c2N)cc1 (stereo not drawn), the “hERG current change (%, negative = inhibition) at 10uM” value was -38.2%. O=C(c1ccc(CS(=O)(=O)c2ccc(Br)cc2)o1)N1CCC2(CC1)OCCO2 was tested, and the “hERG current change (%, negative = inhibition) at 10uM” value was -18.2%. For Cc1ccc(NC(=O)Cn2cc(S(=O)(=O)c3ccc(F)cc3)c(=O)c3cc(F)ccc32)cc1, the “hERG current change (%, negative = inhibition) at 10uM” value was 4.56%. With CCc1nc(C)c(C(=O)N2CCCC(C(=O)Nc3cccc(-c4cccc(C)c4)c3)C2)o1 (stereo not drawn) the “hERG current change (%, negative = inhibition) at 10uM” value was -42.5%. For Clc1ccc(Cn2ncc3c(N4CCOCC4)ncnc32)cc1, the “hERG current change (%, negative = inhibition) at 10uM” value was -16.2%. For Cc1c(C(C)CCCO)oc(=O)c2c1Oc1c(C)c(C(C)C[C@H](C)O)oc(=O)c1C2 (stereo partly drawn), the “hERG current change (%, negative = inhibition) at 10uM” value was 2.15%. For COc1ccc(C(=O)NCCNc2nc3c(C)cccc3cc2C#N)cc1, the “hERG current change (%, negative = inhibition) at 10uM” value was 5.36%. CC(NC(=O)c1ccco1)C(=O)N1CCN(C(c2ccccc2)c2ccccc2)CC1 (stereo not drawn) was tested, and the “hERG current change (%, negative = inhibition) at 10uM” value was -15.7%. With COc1ccc(S(=O)(=O)N2CCOC23CCN(S(=O)(=O)c2cc(C)ccc2OC)CC3)cc1 the “hERG current change (%, negative = inhibition) at 10uM” value was 26.8%. With CCCCN1CC(O)=C(c2nc(-c3ccc(Cl)cc3)cs2)C1=N the “hERG current change (%, negative = inhibition) at 10uM” value was 15.8%. C=CCNC(=S)NNc1nc2sc3c(c2c(=O)[nH]1)CC(C)(C)OC3 was tested, and the “hERG current change (%, negative = inhibition) at 10uM” value was 15.6%. For COC(=O)c1cc(S(=O)(=O)N2CCN(c3ccc(C(C)=O)cc3)CC2)cn1C, the “hERG current change (%, negative = inhibition) at 10uM” value was 8.29%.
